Screen size: about 360,000 compounds; about 16,000 (4.4%) were called active. Inconclusive means that the source gave no clear call. Such entries were picked first, then a sample of the others. Calls follow the shape of the dose curve; as a rule, active = well fitted inhibition curve with a large enough effect; inconclusive = small, poorly fitted or top-dose-only effect; inactive = no such curve, though single readings can be large or run the other way. Potencies of inconclusive entries are doubtful fits and often do not repeat.
Target: Bromodomain adjacent to zinc finger domain protein 2B (Homo sapiens) (UniProt Q9UIF8)
Experiment: qHTS Assay for Inhibitors of BAZ2B; also: nearly all actives have a fitted effect of over 60% in size
Conditions: AlphaScreen BAZ2B-H3K14Ac peptide displacement; series mostly up to 114 µM
Outline: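 Compounds, titrated to a top concentration of 110 uM, were incubated 30 min at room temperature with preformed BAZ2B/acetyl-K14 H3 peptide complex (50 nM each). Proximity signal was measured by AlphaScreen after 20 min with beads.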
Potency is read from the fitted curve at half-maximal effect; tags tell the direction and shape of the fitted curve.

Chain of UniProt Q9UIF8 (Q9UIF8 whole entry, looked up, the tested form may be a part): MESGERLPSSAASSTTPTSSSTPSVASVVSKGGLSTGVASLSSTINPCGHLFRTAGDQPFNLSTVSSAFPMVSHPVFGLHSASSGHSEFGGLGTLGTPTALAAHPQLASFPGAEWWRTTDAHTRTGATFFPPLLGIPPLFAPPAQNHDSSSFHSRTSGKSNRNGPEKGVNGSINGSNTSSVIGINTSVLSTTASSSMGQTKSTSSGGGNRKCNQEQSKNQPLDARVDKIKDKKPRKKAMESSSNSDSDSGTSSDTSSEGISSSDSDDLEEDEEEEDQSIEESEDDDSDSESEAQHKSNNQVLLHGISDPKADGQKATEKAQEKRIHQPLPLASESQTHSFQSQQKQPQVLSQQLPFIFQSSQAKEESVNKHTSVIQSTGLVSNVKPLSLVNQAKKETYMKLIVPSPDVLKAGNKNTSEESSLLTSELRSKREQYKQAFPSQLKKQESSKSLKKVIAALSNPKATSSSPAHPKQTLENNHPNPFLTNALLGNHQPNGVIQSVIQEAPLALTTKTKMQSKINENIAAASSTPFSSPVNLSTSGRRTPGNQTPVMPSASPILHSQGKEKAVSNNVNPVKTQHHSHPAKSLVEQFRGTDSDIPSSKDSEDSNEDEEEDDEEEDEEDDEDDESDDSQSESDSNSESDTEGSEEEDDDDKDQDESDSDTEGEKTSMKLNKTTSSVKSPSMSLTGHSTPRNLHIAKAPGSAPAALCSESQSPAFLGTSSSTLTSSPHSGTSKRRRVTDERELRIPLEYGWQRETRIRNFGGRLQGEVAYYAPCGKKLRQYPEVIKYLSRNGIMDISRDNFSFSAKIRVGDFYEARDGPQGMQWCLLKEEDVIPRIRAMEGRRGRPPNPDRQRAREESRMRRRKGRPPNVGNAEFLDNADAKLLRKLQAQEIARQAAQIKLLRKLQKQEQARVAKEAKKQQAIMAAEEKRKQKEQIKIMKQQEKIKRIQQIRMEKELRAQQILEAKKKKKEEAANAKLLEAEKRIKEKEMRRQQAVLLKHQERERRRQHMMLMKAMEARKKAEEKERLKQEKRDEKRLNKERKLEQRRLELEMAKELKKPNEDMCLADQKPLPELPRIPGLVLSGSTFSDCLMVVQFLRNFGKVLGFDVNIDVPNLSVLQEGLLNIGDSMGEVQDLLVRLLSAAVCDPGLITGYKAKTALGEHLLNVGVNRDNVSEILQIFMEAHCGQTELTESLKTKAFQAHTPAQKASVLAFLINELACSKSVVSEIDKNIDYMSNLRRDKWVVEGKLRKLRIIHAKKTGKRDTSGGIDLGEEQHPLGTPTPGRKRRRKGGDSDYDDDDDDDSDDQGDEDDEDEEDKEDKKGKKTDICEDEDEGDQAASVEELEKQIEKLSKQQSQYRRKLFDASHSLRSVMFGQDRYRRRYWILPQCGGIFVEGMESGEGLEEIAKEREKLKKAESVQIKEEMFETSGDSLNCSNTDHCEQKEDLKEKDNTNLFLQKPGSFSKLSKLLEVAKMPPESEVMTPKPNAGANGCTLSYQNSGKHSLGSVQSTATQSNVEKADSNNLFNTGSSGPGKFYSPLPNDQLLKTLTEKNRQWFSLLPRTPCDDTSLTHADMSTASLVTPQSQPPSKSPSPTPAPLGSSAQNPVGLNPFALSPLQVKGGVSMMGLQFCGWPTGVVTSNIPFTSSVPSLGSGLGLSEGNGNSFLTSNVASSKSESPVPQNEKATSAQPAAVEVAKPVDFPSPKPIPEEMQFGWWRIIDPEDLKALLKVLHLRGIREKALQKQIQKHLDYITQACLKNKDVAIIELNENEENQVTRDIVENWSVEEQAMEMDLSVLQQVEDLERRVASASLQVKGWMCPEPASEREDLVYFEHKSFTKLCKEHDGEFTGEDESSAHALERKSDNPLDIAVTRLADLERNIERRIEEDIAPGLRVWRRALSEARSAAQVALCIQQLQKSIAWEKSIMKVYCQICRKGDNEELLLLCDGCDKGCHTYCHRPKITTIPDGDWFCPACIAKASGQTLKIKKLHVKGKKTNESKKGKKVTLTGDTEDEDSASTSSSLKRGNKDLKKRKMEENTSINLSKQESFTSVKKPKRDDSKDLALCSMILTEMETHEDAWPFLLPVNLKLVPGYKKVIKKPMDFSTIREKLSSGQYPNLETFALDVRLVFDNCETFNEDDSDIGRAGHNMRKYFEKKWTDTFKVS

Compound	Potency
COc1cc(Nc2nc(SCC(=O)c3ccc(Br)cc3)nc3ccccc23)cc(OC)c1	inactive
Cc1oc2cc3oc(=O)c(CCC(=O)N4C[C@H]5C[C@@H](C4)c4cccc(=O)n4C5)c(C)c3cc2c1C	inactive
CCC(C)NCCOc1ccc(C)cc1[N+](=O)[O-] (configuration not stated)	active: 39.8 µM
N#C/C(=C\c1ccc(-c2ccc(C(=O)O)cc2)o1)C(=O)Nc1ccccc1C(=O)O	inconclusive: 79.4 µM [inhibitor, single point]
COc1ccc(OC)c(NC(=O)CS(=O)(=O)Cc2nc(-c3ccccc3C)oc2C)c1	inconclusive: 44.7 µM [inhibitor, partial curve]
O=[N+]([O-])c1ccc(C(=Nc2cccc3ccccc23)N2CCOCC2)cc1	active: 50.1 µM
CCOC(=O)c1ccc(N2C(=O)C=CC2=O)cc1	inconclusive: 89.1 µM [inhibitor, single point]
S=C1NC2=C(CCC/C2=C\c2ccccc2)C(c2ccccc2)N1 (configuration not stated)	inconclusive: 79.4 µM [inhibitor, single point]
CC(C)(C)NC(=O)C(c1ccccn1)N(C(=O)C1CSC(=O)C1)c1cccc(F)c1 (configuration not stated)	inactive
COc1ccccc1NC(=O)c1cc(=O)c2ccc(C)c(C)c2o1	inactive
COc1ccc(-c2cn(-c3ccc(C)cc3)c(S(=O)(=O)CC(=O)Nc3ccc(F)cc3)n2)cc1	inconclusive: 79.4 µM [inhibitor, partial curve]
Cc1noc(NS(=O)(=O)c2ccc(NC(=O)CSc3nnc4c(n3)[nH]c3ccccc34)cc2)c1C	inconclusive: 89.1 µM [inhibitor, single point]
O=C(CCCN1C(=O)CCC1=O)Nc1ccccc1F	inconclusive: 7.08 µM [inhibitor, single point]
O=C(c1cn2ccccc2n1)N1CCc2c([nH]c3ccccc23)C1c1ccccn1 (configuration not stated)	inconclusive: 56.2 µM [inhibitor, partial curve]
Cc1cccc(N2CCN(S(=O)(=O)c3ccc4[nH]c(=O)c(=O)[nH]c4c3)CC2C)c1 (configuration not stated)	inconclusive: 89.1 µM [inhibitor, single point]
CC(C)(C)c1ccc(OCc2ccc(C(=O)NN)o2)cc1	inactive
CC(=O)c1cc2c(cc1N)OCO2	inconclusive: 79.4 µM [inhibitor, partial curve]
COc1ccccc1CNC(=O)c1ccc(CS(=O)(=O)c2ccc(C)cc2)o1	inconclusive: 44.7 µM [inhibitor, partial curve]
COc1ccc(-c2cc(C(F)(F)F)c3c(=O)n(-c4ccccc4)[nH]c3n2)cc1	inconclusive: 89.1 µM [inhibitor, single point]
Cc1c(C(=O)NCc2cccc(Cl)c2)sc2ncnc(N(C)C3CCCCC3)c12	inactive
COc1ccc(NC(=O)CN(C)C(=O)Cc2ccc3c(c2)CCC3)cc1	inactive
CCOc1ccc(-n2cc(-c3ccccc3)c3c(N4CCOCC4)ncnc32)cc1	active: 25.1 µM
COc1cc2ccccc2cc1C(=O)Nc1ccc(N2CCN(C(=O)C(C)C)CC2)cc1	inconclusive: 22.4 µM [inhibitor, full curve]
CCOc1ccc(N2CC(C(=O)NCc3ccco3)CC2=O)cc1 (configuration not stated)	inconclusive: 89.1 µM [inhibitor, single point]
CCN1CCN(CC#CCOc2ccccc2OC)CC1	active: 22.4 µM
Cc1cc(C)c(C)c(S(=O)(=O)N2CCCN(C)CC2)c1C	inactive

Compound	Potency
CC(C)(C)OC(=O)N[C@@H](Cc1ccccc1)C(=O)NCC1CCC(C(=O)N[C@@H](CCC(N)=O)C(=O)O)CC1 (some centres not stated)	inconclusive: 89.1 µM [inhibitor, single point]
CCOc1cc(CN2CCc3c([nH]c4ccccc34)C2)ccc1OC	active: 50.1 µM
COCCCNC(=S)N/N=C/c1ccc(OC)c(Br)c1	inconclusive: 70.8 µM [inhibitor, single point]
COc1ccc(CCn2c(NN=C(C)C)nc3c2c(=O)[nH]c(=O)n3C)cc1	inconclusive: 89.1 µM [inhibitor, single point]
COc1ccc(Br)cc1CN1CCC(N2CCCC2)CC1	active: 31.6 µM
O=c1c2ccccc2ncn1CCCCOc1ccc(Br)cc1	inactive
Cc1ccc(Cl)cc1N1CCN(C(=O)c2ccc3c(c2)N(Cc2ccc(F)cc2)CCS3)CC1	inconclusive: 0.282 µM [inhibitor, full curve, poor fit]
CN(C)c1ccc(N2CN=C3SCC(=O)N3C2)cc1	active: 25.1 µM
O=C(CSc1ccc(-c2ccccn2)nn1)N1CCCC1	active: 7.08 µM
CCN1c2ccccc2-c2nc3ccccc3n2C1c1cccs1 (configuration not stated)	inactive
Cc1csc(N2CCN(c3cc4nc(-c5ccncc5)[nH]c4cc3Cl)CC2)n1	inconclusive: 89.1 µM [inhibitor, single point]
O=[N+]([O-])c1cccnc1SCc1ccccc1	active: 31.6 µM
CCCn1c(SCC(=O)c2c(N)n(C3CC3)c(=O)[nH]c2=O)nnc1-c1ccncc1	inactive
C/C(=C1/SC(N2CC(C)OC(C)C2)=NC1=O)c1ccccc1 (configuration not stated)	inactive
O=C1OC(NC(=O)c2ccccc2)C(n2cc(CO)nn2)=C1Cl (configuration not stated)	inconclusive: 100 µM [inhibitor, single point]
O=C(/C=C/c1ccccc1)NCCc1ccccc1	inconclusive: 79.4 µM [inhibitor, single point]
CC(=O)c1cccc(NC(=O)C2CCN(S(=O)(=O)c3ccc4c(c3)oc(=O)n4C)CC2)c1	inactive
CCOC(=O)C1=C(C)NC2=C(C(=O)CC(C)(C)C2)C1c1ccc(N(C)C)cc1 (configuration not stated)	inactive
CCOC(=O)c1cccc(NC(=O)CCn2c(-c3ccc(F)cc3)cc(C(=O)OCC)c2C)c1	inactive
Cc1cc(NC(=O)CSc2ccccn2)no1	inactive
O=C(NCc1ccco1)/C(=C/c1ccco1)NC(=O)c1ccco1	inactive
CCCC(c1nnnn1Cc1ccco1)N1CCN(c2ccccc2)CC1 (configuration not stated)	active: 56.2 µM
Cc1ccc(Cl)cc1N1CCN(C(=O)c2ccc(CS(=O)(=O)c3ccccc3C)o2)CC1	inconclusive: 15.8 µM [inhibitor, full curve]
CCOc1ccccc1NC(=O)C1=C(C)NC(=S)NC1c1cccs1 (configuration not stated)	inactive
CCCCNC(c1ccccc1)c1ccncc1 (configuration not stated)	inconclusive: 12.6 µM [inhibitor, single point]
CN(Cc1nccn1C)C(=O)CC1C(=O)NCCN1Cc1ccccc1C(F)(F)F (configuration not stated)	inactive

Compound	Potency
CN(C)CCCNC(=S)Nc1ccc(-c2ccccc2)cc1	inactive
COc1ccc(-c2csc(N)n2)cc1	inactive
CN1CCN(C(=S)c2ccc(-c3cccc(Cl)c3Cl)o2)CC1	inconclusive: 44.7 µM [inhibitor, partial curve, poor fit]
Oc1c(C=NCc2ccccc2)sc2ccccc12	inconclusive: 44.7 µM [inhibitor, partial curve]
CCCCS(=O)CC(O)COCC (configuration not stated)	inconclusive: 89.1 µM [inhibitor, single point]
Fc1ccc(-c2ccc(CNCc3ccccn3)o2)cc1	active: 50.1 µM
O=C(CN1C(=O)/C(=C\c2ccccc2F)SC1=S)Nc1nc2ccccc2s1	inconclusive: 28.2 µM [inhibitor, full curve]
Cc1ccn2c(=O)nc(SCC(=O)NCc3ccccc3)nc2c1	inconclusive: 89.1 µM [inhibitor, single point]
C[C@H](NC(N)=O)C(=O)Nc1ccc2c(c1)OCO2	inconclusive: 89.1 µM [inhibitor, partial curve]
O=C(N/N=C/c1cccs1)c1ccccn1	inconclusive: 89.1 µM [inhibitor, single point]
COc1cc(/C=N/NC(=O)c2c(-c3c(Cl)cccc3Cl)noc2C)ccc1OCC(N)=O	inconclusive: 79.4 µM [inhibitor, single point]
CCCCN(C(=O)C1CC(=O)N(c2ccc(C)cc2)C1)c1c(N)n(CCC)c(=O)[nH]c1=O (configuration not stated)	inactive
Cc1ccccc1CN1CCC(CNC(=O)c2c(C)oc3ncnc(N4CCCCC4)c23)CC1	inactive
Cc1noc(NS(=O)(=O)c2ccc(N/C=C\C(=O)c3ccc(F)cc3)cc2)c1C	inconclusive: 56.2 µM [inhibitor, partial curve]
Cc1ccc(NC(=O)CCn2cccc2)cc1F	inconclusive: 89.1 µM [inhibitor, single point]
COc1cc(C(=O)NCC(c2cccs2)S(=O)(=O)c2cccs2)cc(OC)c1OC (configuration not stated)	inactive
COc1cccc(Nc2nc(-c3sc(N)nc3C)cs2)c1	active: 39.8 µM
COc1ccc(-c2c3c(=O)n(C)c(=O)n(C)c3c3n2-c2ccccc2NC3c2ccco2)cc1 (configuration not stated)	inactive
O=C(Nc1ccc2c(c1)CCCN2C(=O)c1cccs1)c1ccccc1Cl	inactive
N#Cc1ccccc1CSc1nc2ccc(NC(=O)c3ccccc3C(=O)O)cc2s1	inconclusive: 63.1 µM [inhibitor, partial curve, poor fit]
CC(O)CCC(=O)NNC(=S)Nc1ccccc1 (configuration not stated)	inactive
O=C(c1ccc(Cl)c([N+](=O)[O-])c1)N1CCN(c2ccccc2)CC1	inconclusive: 100 µM [inhibitor, single point]
CC/C=C/C(=O)N1CC2(CC(c3cccc(NC(=O)COc4ccc(Cl)cc4)c3)=NO2)C[C@H]1C(N)=O (some centres not stated)	inconclusive: 89.1 µM [inhibitor, single point]
CCc1nnc(NC(=O)CC23CC4CC(CC(Br)(C4)C2)C3)s1	inactive
COCCNC(=O)c1cnc2sc(N3CCC(C)CC3)nn2c1=O	inactive
